Laboratory results as given in the supplement of paper PMC12217912.
Some of the results follow. The full chains were built here from the parent and the listed change. Inactive controls read about 0.05.

B1: TEV protease; numbered along this chain (parent)
chain: MGESLFKGPRDYNPISSSICHLTNESDGHTTSLYGIGFGPFIITNKHLFRRNNGTLVVQSLHGVFKVKDTTTLQQHLVDGRDMIIIRMPKDFPPFPQKLKFREPQREERICLVTTNFQTKSMSSMVSDTSCTFPSGDGIFWKHWIQTKDGQCGSPLVSTRDGFIVGIHSASNFTNTNNYFTSVPKNFMELLTNQEAQQWVSGWRLNADSVLWGGHKVFMVKPEEPFQPVKEATQL

Variants of: B1
Assay: raw area under fraction-flipped curve 0-4 h after induction (AUC4h, not background-subtracted), DNA-recorder readout of cleavage of the substrate (dimensionless); higher = more cleavage of the substrate by the protease variant
Conditions: temperature: 34 °C; time window: 0-4 h after rhamnose induction
Method: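 In vivo DNA recorder in E. coli TOP10(DE3) ΔrhaA at 34 °C. Each TEVp single-site mutant (parent TEVp 0) is paired with a single-site variant of the 7-mer TEVs (canonical ENLYFQ|S). The substrate sits between flexible linkers in a Bxb1-sfGFP-TEVs-SsrA fusion, so cleavage stabilises Bxb1 and speeds flipping of a recombination array, read by NGS. The value is the raw area under the fraction-flipped curve over 0-4 h after rhamnose induction (AUC4h), with ≥20 reads per time point. It is not background-subtracted; inactive controls average about 0.047.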
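Also: Bxb1 expression induced with 0.2% (w/v) L-rhamnose at OD600 near 0.5, cultures sampled hourly, flipped fraction per protease–substrate barcode pair counted by paired-end Illumina sequencing.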

## MGESLFKGPRDYNPISSSICHLTNESDGHTTSLYGIGFGPFIITNKHLFRRNNGTLVVQSLHGVFKVKDTTTLQQHLVDGRDMIIIRMPKDFPPFPQKLKFREPQREERICLVTTNFQTKSMSSMVSDTSCTFPSGDGKFWKHWIQTKDGQCGSPLVSTRDGFIVGIHSASNFTNTNNYFTSVPKNFMELLTNQEAQQWVSGWRLNADSVLWGGHKVFMVKPEEPFQPVKEATQL [I139K]
  area with substrate ENLYAQS: 0.0586
  area with substrate ENLYDQS: 0.0532
  area with substrate ENLYEQS: 0.059
  area with substrate ENLYIQS: 0.077
  area with substrate ENLYKQS: 0.0385
  area with substrate ENLYMQS: 0.0523
  area with substrate ENLYNQS: 0.0646
  area with substrate ENLYQQS: 0.0461
  area with substrate ENLYTQS: 0.0837
  area with substrate ENLYVQS: 0.118
  area with substrate ENLYWQS: 0.0592

## MGESLFKGPRDYNPISSSICHLTNESDGHTTSLYGIGFGPFIITNKHLFRRNNGTLVVQSLHGVFKVKDTTTLQQHLVDGRDMIIIRMPKDFPPFPQKLKFREPQREERICLVTTNFQTKSMSSMVSDTSCTFPSGDGIFKKHWIQTKDGQCGSPLVSTRDGFIVGIHSASNFTNTNNYFTSVPKNFMELLTNQEAQQWVSGWRLNADSVLWGGHKVFMVKPEEPFQPVKEATQL [W141K]
  area with substrate ENLYAQS: 0.0671
  area with substrate ENLYEQS: 0.0602
  area with substrate ENLYGQS: 0.0542
  area with substrate ENLYHQS: 0.0396
  area with substrate ENLYKQS: 0.0478
  area with substrate ENLYPQS: 0.0565
  area with substrate ENLYVQS: 0.056
  area with substrate ENLYWQS: 0.0571

## MGESLFKGPRDYNPISSSICHLTNESDGHTTSLYGIGFGPFIITNKHLFRRNNGTLVVQSLHGVFKVKDTTTLQQHLVDGRDMIIIRMPKDFPPFPQKLKFREPQREERICLVTTNFQTKSMSSMVSDTSCTFPSGDGIFDKHWIQTKDGQCGSPLVSTRDGFIVGIHSASNFTNTNNYFTSVPKNFMELLTNQEAQQWVSGWRLNADSVLWGGHKVFMVKPEEPFQPVKEATQL [W141D]
  area with substrate ENLYAQS: 0.0634
  area with substrate ENLYEQS: 0.0741
  area with substrate ENLYHQS: 0.0592
  area with substrate ENLYKQS: 0.0557
  area with substrate ENLYMQS: 0.0546
  area with substrate ENLYNQS: 0.0554
  area with substrate ENLYPQS: 0.0625
  area with substrate ENLYVQS: 0.0658
  area with substrate ENLYYQS: 0.062

## MGESLFKGPRDYNPISSSICHLTNESDGHTTSLYGIGFGPFIITNKHLFRRNNGTLVVQSLHGVFKVKDTTTLQQHLVDGRDMIIIRMPKDFPPFPQKLKFREPQREERICLVTTNFQTKSMSSMVSDTSCTFPSGDGIFWKHWIQTKDGVCGSPLVSTRDGFIVGIHSASNFTNTNNYFTSVPKNFMELLTNQEAQQWVSGWRLNADSVLWGGHKVFMVKPEEPFQPVKEATQL [Q151V]
  area with substrate ENLYAQS: 0.1
  area with substrate ENLYCQS: 0.0766
  area with substrate ENLYEQS: 0.0636
  area with substrate ENLYGQS: 0.0584
  area with substrate ENLYHQS: 0.0917
  area with substrate ENLYKQS: 0.0518
  area with substrate ENLYMQS: 0.0766
  area with substrate ENLYNQS: 0.0733
  area with substrate ENLYPQS: 0.0479
  area with substrate ENLYQQS: 0.0651
  area with substrate ENLYTQS: 0.0717
  area with substrate ENLYVQS: 0.0914
  area with substrate ENLYWQS: 0.0754
  area with substrate ENLYYQS: 0.065

## MGESLFKGPRDYNPISSSICHLTNESDGHTTSLYGIGFGPFIITNKHLFRRNNGTLVVQSLHGVFKVKDTTTLQQHLVDGRDMIIIRMPKDFPPFPQKLKFREPQREERICLVTTNFQTKSMSSMVSDTSCTFPSGDGIFWKHWIQTKAGQCGSPLVSTRDGFIVGIHSASNFTNTNNYFTSVPKNFMELLTNQEAQQWVSGWRLNADSVLWGGHKVFMVKPEEPFQPVKEATQL [D149A]
  area with substrate ENLYAQS: 0.0742
  area with substrate ENLYDQS: 0.0637
  area with substrate ENLYHQS: 0.0573
  area with substrate ENLYLQS: 0.0808
  area with substrate ENLYMQS: 0.0784
  area with substrate ENLYNQS: 0.0637
  area with substrate ENLYPQS: 0.0823
  area with substrate ENLYQQS: 0.0581
  area with substrate ENLYTQS: 0.0671
  area with substrate ENLYWQS: 0.0777
  area with substrate ENLYYQS: 0.068

## MGESLFKGPRDYNPISSSICHLTNESDGHTTSLYGIGFGPFIITNKHLFRRNNGTLVVQSLHGVFKVKDTTTLQQHLVDGRDMIIIRMPKDFPPFPQKLKFREPQREERICLVTTNFQTKSMSSMVSDTSCTFPSGDGIFWKHWIQTKFGQCGSPLVSTRDGFIVGIHSASNFTNTNNYFTSVPKNFMELLTNQEAQQWVSGWRLNADSVLWGGHKVFMVKPEEPFQPVKEATQL [D149F]
  area with substrate ENLYAQS: 0.0641
  area with substrate ENLYDQS: 0.0649
  area with substrate ENLYEQS: 0.064
  area with substrate ENLYGQS: 0.0512
  area with substrate ENLYHQS: 0.0702
  area with substrate ENLYIQS: 0.0748
  area with substrate ENLYMQS: 0.0691
  area with substrate ENLYNQS: 0.0595
  area with substrate ENLYRQS: 0.0631
  area with substrate ENLYSQS: 0.0629
  area with substrate ENLYTQS: 0.0509
  area with substrate ENLYVQS: 0.0864
  area with substrate ENLYYQS: 0.0428

## MGESLFKGPRDYNPISSSICHLTNESDGHTTSLYGIGFGPFIITNKHLFRRNNGTLVVQSLHGVFKVKDTTTLQQHLVDGRDMIIIRMPKDFPPFPQKLKFREPQREERICLVTTNFQTKSMSSMVSDTSCTFPSGDGIFWKYWIQTKDGQCGSPLVSTRDGFIVGIHSASNFTNTNNYFTSVPKNFMELLTNQEAQQWVSGWRLNADSVLWGGHKVFMVKPEEPFQPVKEATQL [H143Y]
  area with substrate ENLYAQS: 0.0787
  area with substrate ENLYCQS: 0.0942
  area with substrate ENLYDQS: 0.0674
  area with substrate ENLYEQS: 0.076
  area with substrate ENLYHQS: 0.053
  area with substrate ENLYKQS: 0.0582
  area with substrate ENLYLQS: 0.0959
  area with substrate ENLYMQS: 0.108
  area with substrate ENLYNQS: 0.067
  area with substrate ENLYPQS: 0.0821
  area with substrate ENLYVQS: 0.154
  area with substrate ENLYWQS: 0.0865
  area with substrate ENLYYQS: 0.0301

## MGESLFKGPRDYNPISSSICHLTNESDGHTTSLYGIGFGPFIITNKHLFRRNNGTLVVQSLHGVFKVKDTTTLQQHLVDGRDMIIIRMPKDFPPFPQKLKFREPQREERICLVTTNFQTKSMSSMVSDTSCTFPSGDGIFWKSWIQTKDGQCGSPLVSTRDGFIVGIHSASNFTNTNNYFTSVPKNFMELLTNQEAQQWVSGWRLNADSVLWGGHKVFMVKPEEPFQPVKEATQL [H143S]
  area with substrate ENLYAQS: 0.0732
  area with substrate ENLYCQS: 0.0858
  area with substrate ENLYEQS: 0.049
  area with substrate ENLYGQS: 0.0629
  area with substrate ENLYIQS: 0.0903
  area with substrate ENLYKQS: 0.0687
  area with substrate ENLYLQS: 0.0748
  area with substrate ENLYNQS: 0.0494
  area with substrate ENLYPQS: 0.0585
  area with substrate ENLYQQS: 0.0601
  area with substrate ENLYRQS: 0.0708
  area with substrate ENLYSQS: 0.0803
  area with substrate ENLYVQS: 0.0839
  area with substrate ENLYWQS: 0.0884
  area with substrate ENLYYQS: 0.068

## MGESLFKGPRDYNPISSSICHLTNESDGHTTSLYGIGFGPFIITNKHLFRRNNGTLVVQSLHGVFKVKDTTTLQQHLVDGRDMIIIRMPKDFPPFPQKLKFREPQREERICLVTTNFQTKSMSSMVSDTSCTFPSGDGIFWKHWIETKDGQCGSPLVSTRDGFIVGIHSASNFTNTNNYFTSVPKNFMELLTNQEAQQWVSGWRLNADSVLWGGHKVFMVKPEEPFQPVKEATQL [Q146E]
  area with substrate ENLYAQS: 0.0642
  area with substrate ENLYDQS: 0.0737
  area with substrate ENLYGQS: 0.0536
  area with substrate ENLYHQS: 0.0689
  area with substrate ENLYKQS: 0.0676
  area with substrate ENLYLQS: 0.085
  area with substrate ENLYMQS: 0.0926
  area with substrate ENLYNQS: 0.067
  area with substrate ENLYPQS: 0.0581
  area with substrate ENLYQQS: 0.0663
  area with substrate ENLYRQS: 0.0591
  area with substrate ENLYTQS: 0.0823
  area with substrate ENLYVQS: 0.103
  area with substrate ENLYWQS: 0.0972
  area with substrate ENLYYQS: 0.0679
